# According to the supplement of paper PMC8728848:
# The list shows a part of the results.
# B1: PX14375l-pdi-526-25-526 (Parabacteroides distasonis) (protein)
# chain: DEEPKSTLTDVAYYKTQSQMESNVNYLYRTGAIGSYVDFGSAYIGPFASIQEELTGYFSNSYEGQEIVCRYTRELTRQQNTMQLASKMDKVWDDCYRGINVANGAIKHMPEVPMDQATADRLTAEAKFFRAFNYFYLVKTFGAVPFYTDPYELAENMELPRTETSTIYNQIESDLKDAMNVLPEATFAANGHRITKYVAAMTLTDVYMYQHKYAEAAETVRIVVNSNHKLTTNDDLAMNSAFNKLRSTDDLDEAIYAYEYDNQISPSNWLPTYAFDGDASSNGLFGTYAITQKVHGPNDRYLNIYESNDLRRQPNQFYHWTYTNPKTGKVWNSVGNAACCWYYYDEDALLTTGRGTKDWNVYRYAEALLDAAESIAQSTGVTAEAAGYLAQVKARANMEGKTAAEIASSLQSMGKQAFIEECWTERLRELPLEFKMWDMCVRTGMFPNISETTPGQVTYIPLVGAKNASGATIKESDLLWPLSVNEIQRNPSLTQNEGYSAK
# Columns and labels:
# Assay in all cases: glycan array binding signal (z-score within array); higher = stronger binding
# Conditions in all cases: glycan notation: IUPAC condensed, linker removed
# [1] = molecular target: Man(a1-3)[Man(a1-6)]Man(a1-6)[Man(a1-3)]Man
# Summary of the method: (§1)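 Arrays were curated from the Consortium for Functional Glycomics database, 3228 in total, and kept only where the protein sequence was available. Binding is expressed as a within-array Z-score. This score was averaged across arrays of the same protein sequence at different concentrations or buffers and across linkers, and negative values can be read as non-binding.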
# [2] = molecular target: Man(a1-3)[Man(a1-6)]Man(a1-6)[Man(a1-3)]Man(b1-4)GlcNAc(b1-4)GlcNAc
# Summary of the method: as §1
# [3] = molecular target: Man(a1-3)[Man(a1-6)]Man(b1-4)GlcNAc(b1-4)GlcNAc
# Summary of the method: as §1
# [4] = molecular target: Man(a1-3)[Man(a1-6)]Man(b1-4)GlcNAc(b1-4)[Fuc(a1-6)]GlcNAc
# Summary of the method: as §1
# Man(a1-6)Man = molecular target: Man(a1-6)Man
# Summary of the method: as §1
# Man(b1-4)GlcNAc = molecular target: Man(b1-4)GlcNAc
# Summary of the method: as §1
# MurNAc(b1-4)GlcNAc = molecular target: MurNAc(b1-4)GlcNAc
# Summary of the method: as §1
# Neu5Ac(a2-3)Gal = molecular target: Neu5Ac(a2-3)Gal
# Summary of the method: as §1
# [5] = molecular target: Neu5Ac(a2-3)Gal(b1-3)GalNAc
# Summary of the method: as §1
# [6] = molecular target: Neu5Ac(a2-3)Gal(b1-3)GalNAc(b1-3)Gal(a1-4)Gal(b1-4)Glc
# Summary of the method: as §1
# [7] = molecular target: Neu5Ac(a2-3)Gal(b1-3)GalNAc(b1-4)[Neu5Ac(a2-3)]Gal(b1-4)Glc
# Summary of the method: as §1
# [8] = molecular target: Neu5Ac(a2-3)Gal(b1-3)GalNAc(b1-4)[Neu5Ac(a2-8)Neu5Ac(a2-3)]Gal(b1-4)Glc
# Summary of the method: as §1
# [9] = molecular target: Neu5Ac(a2-3)Gal(b1-3)GalNAc6S
# Summary of the method: as §1
# [10] = molecular target: Neu5Ac(a2-3)Gal(b1-3)GlcNAc
# Summary of the method: as §1
# [11] = molecular target: Neu5Ac(a2-3)Gal(b1-3)GlcNAc(b1-2)Man
# Summary of the method: as §1
# [12] = molecular target: Neu5Ac(a2-3)Gal(b1-3)GlcNAc(b1-2)Man(a1-3)[GlcNAc(b1-4)][Neu5Ac(a2-3)Gal(b1-3)GlcNAc(b1-2)Man(a1-6)]Man(b1-4)GlcNAc(b1-4)GlcNAc
# Summary of the method: as §1
# [13] = molecular target: Neu5Ac(a2-3)Gal(b1-3)GlcNAc(b1-2)Man(a1-3)[Neu5Ac(a2-3)Gal(b1-3)GlcNAc(b1-2)Man(a1-6)]Man(b1-4)GlcNAc(b1-4)GlcNAc
# Summary of the method: as §1
# [14] = molecular target: Neu5Ac(a2-3)Gal(b1-3)GlcNAc(b1-3)Gal(b1-3)GlcNAc
# Summary of the method: as §1
# [15] = molecular target: Neu5Ac(a2-3)Gal(b1-3)GlcNAc(b1-3)Gal(b1-4)GlcNAc
# Summary of the method: as §1
# [16] = molecular target: Neu5Ac(a2-3)Gal(b1-3)GlcNAc(b1-3)GalNAc
# Summary of the method: as §1
# [17] = molecular target: Neu5Ac(a2-3)Gal(b1-3)GlcNAc(b1-4)Gal(b1-4)Glc
# Summary of the method: as §1
# [18] = molecular target: Neu5Ac(a2-3)Gal(b1-3)GlcNAc(b1-6)GalNAc
# Summary of the method: as §1
# [19] = molecular target: Neu5Ac(a2-3)Gal(b1-3)GlcNAc6S
# Summary of the method: as §1
# [20] = molecular target: Neu5Ac(a2-3)Gal(b1-3)[Fuc(a1-4)]GlcNAc
# Summary of the method: as §1
# [21] = molecular target: Neu5Ac(a2-3)Gal(b1-3)[Fuc(a1-4)]GlcNAc(b1-3)Gal(b1-3)[Fuc(a1-4)]GlcNAc
# Summary of the method: as §1
# [22] = molecular target: Neu5Ac(a2-3)Gal(b1-3)[Fuc(a1-4)]GlcNAc(b1-3)Gal(b1-4)[Fuc(a1-3)]GlcNAc
# Summary of the method: as §1
# [23] = molecular target: Neu5Ac(a2-3)Gal(b1-3)[GlcNAc(b1-6)]GalNAc
# Summary of the method: as §1
# [24] = molecular target: Neu5Ac(a2-3)Gal(b1-3)[Neu5Ac(a2-6)]GalNAc
# Summary of the method: as §1
# [25] = molecular target: Neu5Ac(a2-3)Gal(b1-3)[Neu5Ac(a2-6)]GlcNAc(b1-3)[Fuc(a1-3)[Gal(b1-4)]GlcNAc(b1-6)]Gal(b1-4)Glc
# Summary of the method: as §1
# [26] = molecular target: Neu5Ac(a2-3)Gal(b1-3)]Neu5Ac(a2-3)Gal(b1-4)]GlcNAc
# Summary of the method: as §1
# Neu5Ac(a2-3)Gal(b1-4)Glc = molecular target: Neu5Ac(a2-3)Gal(b1-4)Glc
# Summary of the method: as §1
# [27] = molecular target: Neu5Ac(a2-3)Gal(b1-4)GlcNAc
# Summary of the method: as §1
# [28] = molecular target: Neu5Ac(a2-3)Gal(b1-4)GlcNAc(b1-2)Man
# Summary of the method: as §1
# [29] = molecular target: Neu5Ac(a2-3)Gal(b1-4)GlcNAc(b1-2)Man(a1-3)[GlcNAc(b1-4)][Neu5Ac(a2-3)Gal(b1-4)GlcNAc(b1-2)Man(a1-6)]Man(b1-4)GlcNAc(b1-4)GlcNAc
# Summary of the method: as §1
# [30] = molecular target: Neu5Ac(a2-3)Gal(b1-4)GlcNAc(b1-2)Man(a1-3)[Neu5Ac(a2-3)Gal(b1-4)GlcNAc(b1-2)Man(a1-6)]Man(b1-4)GlcNAc(b1-4)GlcNAc
# Summary of the method: as §1
# [31] = molecular target: Neu5Ac(a2-3)Gal(b1-4)GlcNAc(b1-2)Man(a1-3)[Neu5Ac(a2-3)Gal(b1-4)GlcNAc(b1-2)Man(a1-6)]Man(b1-4)GlcNAc(b1-4)[Fuc(a1-6)]GlcNAc
# Summary of the method: as §1
# [32] = molecular target: Neu5Ac(a2-3)Gal(b1-4)GlcNAc(b1-2)Man(a1-3)[Neu5Ac(a2-6)Gal(b1-4)GlcNAc(b1-2)Man(a1-6)]Man(b1-4)GlcNAc(b1-4)GlcNAc
# Summary of the method: as §1
# [33] = molecular target: Neu5Ac(a2-3)Gal(b1-4)GlcNAc(b1-2)[Neu5Ac(a2-3)Gal(b1-4)GlcNAc(b1-4)]Man(a1-3)[GlcNAc(b1-4)][Neu5Ac(a2-3)Gal(b1-4)GlcNAc(b1-2)[Neu5Ac(a2-3)Gal(b1-4)GlcNAc(b1-6)]Man(a1-6)]Man(b1-4)GlcNAc(b1-4)GlcNAc
# Summary of the method: as §1
binder,measurement,setting,value
B1,glycan array binding signal (z-score),[1],-0.234
same,glycan array binding signal (z-score),[2],-0.079
same,glycan array binding signal (z-score),[3],-0.157
same,glycan array binding signal (z-score),[4],-0.201
same,glycan array binding signal (z-score),Man(a1-6)Man,0.113
same,glycan array binding signal (z-score),Man(b1-4)GlcNAc,-0.174
same,glycan array binding signal (z-score),MurNAc(b1-4)GlcNAc,0.008
same,glycan array binding signal (z-score),Neu5Ac(a2-3)Gal,-0.136
same,glycan array binding signal (z-score),[5],-0.208
same,glycan array binding signal (z-score),[6],-0.092
same,glycan array binding signal (z-score),[7],-0.257
same,glycan array binding signal (z-score),[8],-0.395
same,glycan array binding signal (z-score),[9],-0.238
same,glycan array binding signal (z-score),[10],-0.206
same,glycan array binding signal (z-score),[11],0.616
same,glycan array binding signal (z-score),[12],-0.457
same,glycan array binding signal (z-score),[13],-0.041
same,glycan array binding signal (z-score),[14],-0.05
same,glycan array binding signal (z-score),[15],-0.281
same,glycan array binding signal (z-score),[16],-0.043
same,glycan array binding signal (z-score),[17],-0.322
same,glycan array binding signal (z-score),[18],-0.249
same,glycan array binding signal (z-score),[19],0.085
same,glycan array binding signal (z-score),[20],0.125
same,glycan array binding signal (z-score),[21],-0.106
same,glycan array binding signal (z-score),[22],0.136
same,glycan array binding signal (z-score),[23],-0.275
same,glycan array binding signal (z-score),[24],-0.151
same,glycan array binding signal (z-score),[25],-0.409
same,glycan array binding signal (z-score),[26],-0.23
same,glycan array binding signal (z-score),Neu5Ac(a2-3)Gal(b1-4)Glc,-0.284
same,glycan array binding signal (z-score),[27],-0.181
same,glycan array binding signal (z-score),[28],-0.302
same,glycan array binding signal (z-score),[29],-0.214
same,glycan array binding signal (z-score),[30],-0.139
same,glycan array binding signal (z-score),[31],0.098
same,glycan array binding signal (z-score),[32],-0.134
same,glycan array binding signal (z-score),[33],-0.203
